Reference: patent publication US12043670B2, “Anti-BCMA antibody-drug conjugates and methods of use” (Eisai R&D Management Co., Ltd., priority 2020, dated 2024)
Positions count from the first letter of the chain named. Numbers in names are those of the source. Values belong to the molecule of their own block, whether it stands above or below them.

Tests used:
[1] = ThermoFluor thermostability (Tm); type: physicochemical; conditions: thermostability of selected clones
[2] = system: OPM2 multiple myeloma xenograft; assay: OPM2 xenograft model, unconjugated anti-BCMA antibodies (Studies 1 and 2); type: in vivo, mouse; conditions: for Tumor growth inhibition (%, day 28): single intravenous dose 20 mg/kg
Protocol: Methods: Anti-tumor activity was assessed in an OPM2 multiple myeloma xenograft model for a subset of exemplary anti-BCMA antibodies in their naked (unconjugated) form. Four antibodies (AB212, AB214, AB217, and AB218) and a reference antibody (AB200) were tested, split between two studies. OPM2 cells were cultured and expanded for inoculation according to ATCC recommendations. Cells were pelleted and resuspended in a solution of serum-free RPMI-1640 medium (50% v/v) and Matrigel (50% v/v) at a density of 5.0×10^7 cells/mL. Female CB17-Scid mice were inoculated subcutaneously with 100 μL of cell suspension on their right flanks and monitored for tumor growth. When the mean tumor volume reached ˜150 mm^3, mice were randomized into treatment groups and given a single intravenous dose (via tail vein) of 2.0 mg/mL dosing solution at 10 mL/kg for a total dose of 20 mg/kg (day of dosing is denoted by arrows in FIG. 9 and FIG. 10). Mice were weighed and their tumors were measured three times/week to monitor for any changes. Animals with tumors exceeding 2000 mm^3 or 20 mm in any dimension were taken off study and appropriately euthanized according to IACUC protocol. Upon euthanasia, tumor samples and serum were collected and banked for subsequent analyses.

[3] = target: T1, extracellular domain of rhesus monkey BCMA (Macaca mulatta, UniProt F7FFA0); assay: Octet binding assay, rhesus monkey BCMA; conditions: Fab format, 200 nM
T1 construct: tips loaded with the extracellular domain of human or rhesus monkey BCMA (amino linked) were generated
T1 sequence (F7FFA0 1-53): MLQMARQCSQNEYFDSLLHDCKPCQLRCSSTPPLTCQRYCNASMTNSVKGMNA
Protocol: (§1) The binding affinity of each mutated clone for the extracellular domain of human and monkey BCMA was determined by Octet assay (ForteBio). Amine Reactive 2nd Generation (AR2G) tips loaded with the extracellular domain of human or rhesus monkey BCMA (amino linked) were generated and incubated in a 200 nM solution of each antibody clone (all clones in Fab format). Ligand association and dissociation were determined over 600 seconds (300 seconds for each stage).

[4] = target: T2, extracellular domain of human BCMA (Homo sapiens, UniProt Q02223); assay: Octet binding assay, human BCMA; conditions: Fab format, 200 nM
T2 construct: tips loaded with the extracellular domain of human or rhesus monkey BCMA (amino linked) were generated
T2 sequence (Q02223 1-54 limits assumed): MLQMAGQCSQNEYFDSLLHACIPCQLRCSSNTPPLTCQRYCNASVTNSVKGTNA
Protocol: as §1

[5] = OPM2 Study 2, unconjugated antibody, 20 mg/kg, not statistically significant
[6] = OPM2 Study 2, unconjugated antibody

B1: AB214: humanized anti-BCMA antibody, heavy chain SEQ ID NO: 96, light chain SEQ ID NO: 97 (antibody)
heavy: QVQLVQSGAEVKKPGSSVKVSCKASGGTFSNYWIHWVRQAPGQGLEWMGATYRSQSDTYYNQKYKSRVTITADKSTSTAYMELSSLRSEDTAVYYCARGAVYHGYDVIDNWGQGTLVTVSS[omitted - human IgG1 constant region]
light: DIQMTQSPSSLSASVGDRVTITCRASQSISSYLNWYQQKPGKAPKLLIYATSNLQIGVPSRFSGSGSGTDFTLTISSLQPEDFATYYCQQYRRIPWTFGQGTKLEIKRTVAAPSVFIFPPSDEQLKSGTASVVCLLNNFYPREAKVQWKVDNALQSGNSQESVTEQDSKDSTYSLSSTLTLSKADYEKHKVYACEVTHQGLSSPVTKSFNRGEC
Tm [1]: 81.9 °C
tumor growth inhibition (TGI) ([2]; OPM2 Study 1, unconjugated antibody, 20 mg/kg, eleven days post-dose, not statistically significant): ~33%
Tumor growth inhibition (%, day 28) ([2]; OPM2 Study 1, unconjugated antibody): 33.11%

B2: AB218: humanized anti-BCMA antibody, heavy chain SEQ ID NO: 104, light chain SEQ ID NO: 105 (antibody)
heavy: B1 heavy with D57T, Y64F
light: B1 light with Y91F, I94L
Tm [1]: 86.0 °C
effect on tumor growth [2, 5]: modest effect on tumor growth
Tumor growth inhibition (%, day 28) [2, 6]: 4.93%

Koff [3]: 0.00099 s⁻¹
Kon [3]: 90000 M⁻¹ s⁻¹
Koff [4]: 0.0003 s⁻¹
Kon [4]: 80000 M⁻¹ s⁻¹
B3: AB200_Fab + D99T: AB200 Fab with D99T mutation at heavy chain Kabat position 99, non-mutated AB200 light chain (antibody)
VH: QVQLVQSGAEVKKPGSSVKVSCKASGGTFSNYWMHWVRQAPGQGLEWMGATYRGHSDTYYNQKFKGRVTITADKSTSTAYMELSSLRSEDTAVYYCARGAIYTGYDVLDNWGQGTLVTVSS
light: B1 light with R24S, S28D, S31N, A50Y, Q55H, I56S, R93K, I94L

B4: AB212: humanized anti-BCMA antibody, heavy chain SEQ ID NO: 92, light chain SEQ ID NO: 93 (antibody)
heavy: B1 heavy with A50G, Q55H, Y59N, Y64F, V101I, D109E
light: B1 light with Y91F, I94L
Tm [1]: 81.2 °C
effect on tumor growth [2, 5]: modest effect on tumor growth
Tumor growth inhibition (%, day 28) [2, 6]: −14.50%

Koff [3]: 0.00066 s⁻¹
Kon [3]: 200000 M⁻¹ s⁻¹
Koff [4]: 0.00023 s⁻¹
Kon [4]: 190000 M⁻¹ s⁻¹
B5: AB200_Fab + D99N: AB200 Fab with asparagine at heavy chain Kabat position 99, non-mutated AB200 light chain (antibody)
VH: B3 VH with T103N
light: B1 light with R24S, S28D, S31N, A50Y, Q55H, I56S, R93K, I94L

B6: AB217: humanized anti-BCMA antibody, heavy chain SEQ ID NO: 102, light chain SEQ ID NO: 103 (antibody)
heavy: B1 heavy with S30T, Q55H, N61A
light: B1 light with L33I, I56S
Tm [1]: 78.0 °C
effect on tumor growth [2, 5]: modest effect on tumor growth
Tumor growth inhibition (%, day 28) [2, 6]: 16.14%

Koff [3]: 0.00114 s⁻¹
Kon [3]: 120000 M⁻¹ s⁻¹
Koff [4]: 0.00044 s⁻¹
Kon [4]: 110000 M⁻¹ s⁻¹
B7: AB200_Fab + D99S: AB200 Fab with D99S mutation at heavy chain Kabat position 99, non-mutated AB200 light chain (antibody)
VH: B3 VH with T103S
light: B1 light with R24S, S28D, S31N, A50Y, Q55H, I56S, R93K, I94L
